How the values were obtained:
[1] = target: T1, human VEGF165 (human, UniProt P15692-4 27-191); assay: BIAcore, half-life of dissociation
T1 construct: also called hVEGF165
T1 sequence (looked up): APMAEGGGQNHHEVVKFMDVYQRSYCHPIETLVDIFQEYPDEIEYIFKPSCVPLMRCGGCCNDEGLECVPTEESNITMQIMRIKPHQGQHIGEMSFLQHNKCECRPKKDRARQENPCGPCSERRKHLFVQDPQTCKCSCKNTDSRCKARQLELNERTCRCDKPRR

[2] = target: T1, human VEGF165; assay: BIAcore, as described in WO/0075319
[3] = target: T1, human VEGF165; assay: kinetic dissociation from hVEGF165, as described in WO/0075319
[4] = target: T1, human VEGF165; assay: affinity determination for human VEGF-165 (method not named in Example 7)
[5] = target: T1, human VEGF165; assay: half-life of dissociation of the trap-hVEGF165 complex, as described in WO/0075319

T1/2 [1]: 4.53 h
koff [2]: 4.23e-05 s⁻¹
koff [3]: 5.51e-05 s⁻¹
Kd [4]: 0.655 pM
koff [4]: 1.79e-05 s⁻¹
kon [4]: 2.73e+07 M⁻¹ s⁻¹
T1/2 [5]: 3.5 h
B1: VEGFR1R2.FcΔC1(a) (Fc fusion)
chain: SDTGRPFVEMYSEIPEIIHMTEGRELVIPCRVTSPNITVTLKKFPLDTLIPDGKRIIWDSRKGFIISNATYKEIGLLTCEATVNGHLYKTNYLTHRQTNTIIDVVLSPSHGIELSVGEKLVLNCTARTELNVGIDFNWEYPSSKHQHKKLVNRDLKTQSGSEMKKFLSTLTIDGVTRSDQGLYTCAASSGLMTKKNSTFVRVHEK[omitted - human IgG1 Fc]
notes: also called parent VEGF trap; VEGF trap
